Screen size: about 48,000 compounds; about 120 (0.25%) were called active. Another 4% or so got no clear call; they are omitted. Calls come from the whole dose curve; as a rule, active = well fitted activation curve with a large enough effect; inconclusive = small, poorly fitted or top-dose-only effect, or another doubt; inactive = no such curve, though single readings can be large or run the other way. Some of the results follow.
assay: Primary qHTS for Identification of Small Molecule Activators of Huntingtin-Antisense Promoter Activity; conditions: HEK293 HTT-AS promoter firefly luciferase reporter, 24 h; series mostly up to 57.5 µM; activity change, positive = activation: at the top concentration; note: nearly all actives have a fitted effect of over 55% in size
Outline: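 Firefly luciferase signal from promoter-reporter HEK293 cells was scaled between vehicle (0%) and zero RLU (-100%). Compounds were tested at final concentrations of up to 57.5 uM over 24 h at 37 degrees C. PTC124 at 50 uM final served as control inhibitor.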

Activity change, positive = activation, inactive:
O=C(CN(c1cc(C(F)(F)F)ccc1Cl)S(=O)(=O)c1ccccc1)NCCc1ccccc1 -25.9%
COc1ccc(-c2c(C#N)c(SCC(=O)Nc3ccc(Br)cc3)nc(C)c2C(=O)Nc2ccccc2)cc1 -6.36%
CCOc1ccc(CCNC(=O)c2ccc3c(c2)N(Cc2ccccc2)C(=O)c2ccccc2S3=O)cc1OCC (stereo not given) -29.4%
COC(=O)c1ccccc1NC(=O)c1cc2c(s1)-c1ccccc1OC2 -13.7%
O=C(CSc1nc(-c2ccccc2)c2ccccc2n1)Nc1ccc(F)cc1 -4.96%
OC(CN1CCN(c2cccc(Cl)c2)CC1)C(c1ccccc1)c1ccccc1 (stereo not given) -58.4%
Cc1cc(C)c(S(=O)(=O)NCCc2cc3ccc(C)cc3[nH]c2=O)c(C)c1 -15.7%
CC1=C(C(=O)N2CCCCC2)C(c2cccc(Cl)c2)n2c(nc3ccccc32)N1 (stereo not given) -15.1%
Cc1ccc(CNC(=O)Cn2cc(S(=O)(=O)Cc3cccc(Cl)c3)c3ccccc32)cc1 -22.9%
COc1ccc(-c2nc3nc(C)cc(Nc4cccc(C(F)(F)F)c4)n3n2)cc1 -3.29%
COc1ccc(NC(=O)COc2ccc(S(=O)(=O)NC3CCCCC3)cc2)c(OC)c1 -18.3%
O=C(CCCc1nc(-c2ccccc2)no1)Nc1cc(C(F)(F)F)cc(C(F)(F)F)c1 -29.8%
Cc1cc(C)c(Cn2c3ccccc3c3cnn(CC(=O)NCc4ccc(Cl)cc4)c(=O)c32)c(C)c1 -13.6%
CCOc1ccc(NC(=O)c2cc(S(=O)(=O)N3CCCC3)c[nH]2)cc1 -21.6%
CC1=C(C(=O)Nc2ccccc2C)C(c2ccco2)n2ncnc2N1 (stereo not given) -7.79%
Cc1sc(-n2cccc2)c(C(C)NC(=O)Nc2ccccc2Cl)c1C (stereo not given) -26%
Cc1noc(Cn2c(=O)c3ccccc3n(CC(=O)Nc3ccc(F)cc3F)c2=O)n1 -10.3%
COc1ccc(CCNC(=O)c2cc(=O)[nH]c3ccc(S(=O)(=O)N4CCCCC4C)cc23)cc1OC (stereo not given) -40%
COc1cc(NC(C)CCCN)c2ncccc2c1 (stereo not given) -2.55%
CCOCCCNC(=O)c1c(NC(=O)c2nc(SC)ncc2Cl)sc2c1CCCC2 -6.92%
Cc1cn2c(=O)cc(COC(=O)c3ccc(NC(=O)C(C)Oc4ccccc4)cc3)nc2s1 (stereo not given) -9.96%
COc1ccc(OC)c(NC(=O)CCNC(=O)Cn2cnc3ccccc3c2=O)c1 1.24%
O=C(Nc1cc(Cl)cc(Cl)c1)c1cc(S(=O)(=O)N2CCC3(CC2)OCCO3)ccc1F -35.7%
Fc1ccc(Nc2c(-c3ccccn3)nc3ccc(Cl)cn23)cc1 -6.55%
O=C(NCCc1ccccc1)c1nn(-c2ccccc2Cl)nc1CO -22.2%
COc1cccc(NC(=O)Cc2csc(COc3cccc(C)c3)n2)c1 -8.04%
CC(C)c1ccc(Cn2ccc3c4c(N)nc(NC5CC5)nc4ccc32)cc1 -26.1%
CCCCC1(COC(=O)CCC(=O)O)C(=O)N(c2ccccc2)N(c2ccccc2)C1=O -3.48%
COCCn1c(C)cc(O)c(C(c2ccc(OC)cc2)N2CCN(c3ccccc3)CC2)c1=O (stereo not given) -5.96%
Cc1ccc(C)c(-n2nnc(C(=O)Nc3ccc(Br)cc3)c2C)c1 5.07%
CCOc1ccc(Br)cc1S(=O)(=O)Nc1cccc(-c2ccc(OC)nn2)c1 -30.5%
Cc1ccc(C)c(N2CCN(C(=O)CN3C(=O)COc4ccc(S(=O)(=O)N5CCC(C)CC5)cc43)CC2)c1 -12.8%
COc1ccc(NC(=O)c2c(C)oc3ccc(O)c(CN4CCCCCC4)c23)cc1 -17.9%
Cc1ccc(N2CCN(S(=O)(=O)c3ccc(-n4cnnn4)cc3)CC2)c(C)c1 -11.2%
O=c1[nH]c(=O)n([C@H]2C[C@H](O)[C@@H](CO)O2)cc1Br -3.03%
Cc1[nH]cnc1-c1ccc(Cl)cc1 28.4%
Cc1ccc(Cl)cc1N1CCN(C(=O)c2ccc3c(c2)N(Cc2ccccc2)CCS3)CC1 -12%
COc1ccc(-n2c(=O)c3c4c(sc3n(Cc3ccc(C(C)(C)C)cc3)c2=O)CCC4)c(OC)c1 -27.4%
O=C(CSc1nc(=O)n(Cc2ccco2)c2c1CCC2)NCc1ccc(Cl)cc1 -12.8%
Cc1ccc(NC(=O)CCn2c(=O)c3cccn3c3ccccc32)cc1Cl -26.7%
COc1ccc(N2CC(NC(=O)C(=O)c3c(C)[nH]c4ccccc34)CC2=O)cc1 (stereo not given) -13.4%
COc1cc(OC)c(NC(=O)Cn2cnc3sc(C)c(S(=O)(=O)N4CCC(C)CC4)c3c2=O)cc1Cl 19.6%
Cc1cc(C)n(-c2nc3ccccc3nc2Nc2cc(Cl)ccc2C)n1 -1.26%
Cc1cc(C)c2nc(N(Cc3cccnc3)C(=O)Cc3ccccc3)sc2c1 -15.5%
Cc1cc(NC(=O)Nc2nnc(N3CCCCC3)s2)ccc1Br 14%
CCN(Cc1ccccc1)C(=O)Cn1c(=O)n(-c2ccc(Cl)c(Cl)c2)c(=O)c2c(C)c(C(=O)N(C)C)sc21 -7.52%
COc1ccccc1CNC(=O)CSc1nc(=O)[nH]c2c1CCCC2 -9.97%
Cc1cc(C)cc(NC(=O)COCc2cc(-c3ccc4c(c3)OCO4)on2)c1 8.49%
Cc1ccc(-n2ncc3c(Nc4cccc(C(F)(F)F)c4)ncnc32)cc1C 0%
COc1cccc(-c2nc(CS(=O)(=O)CC(=O)NCCc3ccc(Cl)cc3)c(C)o2)c1 -24.4%
CC1CCCCN1C(=O)CSc1c2c(nc3cc(Cl)ccc13)CCCC2 (stereo not given) -15.6%
COc1cccc(N2CCN(C(=O)C3CCN(S(=O)(=O)c4cn(C)cn4)CC3)CC2)c1 -0.488%
CCOCCn1c(=O)c2c(nc3n2CCN3c2ccc(C)c(C)c2)n(C)c1=O -3.56%
CC(C)c1ccc(NC(=O)c2cnc3sc(N4CCOCC4)nn3c2=O)cc1 -22%
NS(=O)(=O)c1ccc(NC(=O)c2csnn2)cc1 -2.86%
COc1ccc(NC(=O)CN(C)S(=O)(=O)c2ccc3c(c2)c(=O)n(C)c(=O)n3C)cc1 -13.3%
COc1ccc(-c2nc3ccc(Cl)cn3c2Nc2ccc(C)cc2)cc1 -14.2%
COc1ccc(OCC2c3cc(OC)c(OC)cc3CCN2C(=O)c2c(F)cccc2F)cc1 (stereo not given) -18.3%
Cc1ccc(C(=O)NCC(c2ccco2)S(=O)(=O)c2ccc(Cl)cc2)cc1C (stereo not given) -9.09%
CCCCNC(=O)c1cn(C)c2ccc(S(=O)(=O)N3CCCC3)cc2c1=O 7.96% [at 11.5 µM, percent change from vehicle, -100% = no light]
CCc1ccc(-n2nc(CO)c(C(=O)NCc3cccs3)n2)cc1 15.7%
CC(C)Oc1ccc(CNC(=O)c2ccc(NC(=O)N3CC(C)Sc4ccccc43)cc2)cc1 (stereo not given) -18.7%
O=C(/C=C/c1ccccc1)Nc1nc2n(n1)C(c1ccc(F)cc1)C=C(c1ccccc1)N2 (stereo not given) -32.9%
CC1CCc2onc(C(=O)N3CCN(c4cccc(Cl)c4)CC3)c2C1 (stereo not given) -31.5%
Cc1cc(Br)cc2c1N(Cc1ccccc1OC(C)C)C(=O)C2=O -57.6%
CCOC(=O)CNC(=O)c1cc2c(=O)n3cccc(C)c3nc2n1C -8.34%
CC(=O)CC/C=C(\C)CC/C=C(\C)CC/C=C(\C)CCC=C(C)C -1.24%
CCCCNc1c(C(=O)OCC)c(C)nc2c1cnn2CC -30.5%
COc1ccc(CCNC(=O)c2cc(=O)c3ccc(C)cc3o2)cc1OC 8.87% [at 11.5 µM, percent change from vehicle, -100% = no light]
CCCCCn1c(=O)[nH]c2cc(C(=O)NC(C)CC)ccc2c1=O (stereo not given) -9.42%
COc1ccc(C(=O)Nc2ccc3oc(-c4cccnc4)nc3c2)cc1OC -29.6%
COCCn1c(=O)[nH]c2cc(C(=O)Nc3ccc(OC)cc3)ccc2c1=O -17.5%
Cc1ccc2c(c1)cc(C(=O)NCc1ccccc1C)n2C -19.2%
CCc1cnc2c(c1SCC(=O)Nc1ccc(C(=O)OC)cc1)c(=O)n(C)c(=O)n2C -6.77%
CC(C)Oc1ccc(CNC(=O)C2CCN(Cc3cc4ccccc4n3Cc3ccccc3)CC2)cc1 -27.2%
CC(C)(C)c1ccc(OCCOCCn2c(-c3ccc(Cl)cc3)nc3ccccc3c2=O)cc1 3.26%
O=C(COC(=O)c1cccc(NC(=O)c2ccc(Br)cc2)c1)c1ccc(Cl)cc1 -39.3%
CCn1c2ccccc2c2cc(NC(=O)COc3cc(C)ccc3C)ccc21 -5.03%
Cc1cccc(Cn2c(COc3ccccc3)nc3ccccc32)c1 -13%
Cc1nn(C)c(C)c1CCNC(=O)Nc1ccccc1C(F)(F)F -14%
COc1ccc(N2CC(NC(=O)/C=C\c3ccccc3)CC2=O)cc1OC (stereo not given) -1.48%
CCN(CC)c1nn2c(=O)c(C(=O)NCc3ccc(N(C)C)cc3)cnc2s1 0.273%
CCC(=O)N1CCc2cc(S(=O)(=O)NC(C(=O)NCCc3cccc(C)c3)C(C)C)ccc21 (stereo not given) 4.46%
CN(Cc1ccco1)S(=O)(=O)c1nnc(NC(=O)c2ccccc2Cl)s1 -6.52%
O=C(NCc1cccs1)c1ccc(CSc2nc3ccncc3n2Cc2ccccc2F)cc1 11.7%
CC1CCCN(CCCNC(=O)c2cc3c(Cl)nc4ccccc4c3s2)C1 (stereo not given) -32.5%
COc1ccc(C(=O)CCC(=O)Nc2ccc(C)c(Cl)c2)cc1 4.75%
COc1cc(Cl)c(C)cc1Nc1nc2ccccc2n2cnnc12 -15.3%
COc1ccccc1CNC(=O)C1CCN(S(=O)(=O)c2cn(C)cn2)CC1 -9.24%
O=C(NCCc1csc(-c2ccc(F)cc2)n1)c1cccc(F)c1 -28.5%
Cc1ccc(C2c3[nH]c4ccccc4c3CCN2C(=O)CSCc2ccc(F)cc2)cc1 (stereo not given) -26.8%
CCc1ccccc1N(C)C(=O)c1sc2nc3n(c(=O)c2c1C)CCCCC3 -0.509%
CCc1cccc(C)c1NC(=O)c1cnn(-c2ccc(OC)cc2)c1C1CCN(C(=O)OC(C)(C)C)CC1 -35.1%
COc1ccc(NC(=O)c2nc(-c3ccc(C)cc3)n3c2CCCCC3)c(OC)c1 -4.56%
CCOCCc1nn2c(=O)cc(COC(=O)c3ccc(NC(=O)C(C)(C)C)cc3)nc2s1 -36.3%
